The record followed here is article PMC6522510 (Nature Communications, 2019).

Where two headings read alike, the source gives them in different places. The list shows a part of the results, in another mix than the full data.

Assay [1] concerns CMK. Nature of the assay: Secondary dose-response HTS, Cell Titer Glo. To be noted: Homo sapiens, read-out: average effective concentration, CMK. The format is cell-based. For orientation: In ATP-based viability assays light output follows the ATP content of the culture.
Assay [2] deals with ML-2. Nature of the assay: cells. Also noted: species or system AML cell lines (8); Secondary HTS, 10-point dose-response in triplicate, Cell Titer Glo viability, four-parameter fit EC50. To be noted: Homo sapiens, ML-2, 72 h, read-out: ML-2.
Assay [3] has as its system CMS. Nature of the assay: Secondary dose-response HTS, Cell Titer Glo. It counts as cell-based. To be noted: Homo sapiens, read-out: average effective concentration, CMS.
In assay [4] the test system is CHRF288-11. Nature of the assay: cells. Also noted: species or system AML cell lines (8); Secondary HTS, 10-point dose-response in triplicate, Cell Titer Glo viability, four-parameter fit EC50. To be noted: 72 h, read-out: CHRF288-11.
Assay [5] concerns M07e. Nature of the assay: cells. To be noted: M-07e, 72 h, read-out: M07e. Also noted: species or system AML cell lines (8); Secondary HTS, 10-point dose-response in triplicate, Cell Titer Glo viability, four-parameter fit EC50.
The subject of assay [6] is MV4-11. Nature of the assay: cells. Also noted: species or system AML cell lines (8); Secondary HTS, 10-point dose-response in triplicate, Cell Titer Glo viability, four-parameter fit EC50. To be noted: Homo sapiens, MV4-11, 72 h, read-out: MV4-11.
For assay [7], the system named is MOLM-13. Nature of the assay: cells. Also noted: species or system AML cell lines (8); Secondary HTS, 10-point dose-response in triplicate, Cell Titer Glo viability, four-parameter fit EC50. The conditions noted are these: Homo sapiens, MOLM-13, 72 h, read-out: MOLM-13.
Assay [8] relates to U937. Nature of the assay: cells. More on the design: species or system AML cell lines (8); Secondary HTS, 10-point dose-response in triplicate, Cell Titer Glo viability, four-parameter fit EC50. The conditions noted are these: Homo sapiens, U-937, 72 h, read-out: U937.
In assay [9] the test system is MV4-11. Nature of the assay: Secondary dose-response HTS, Cell Titer Glo. It counts as cell-based. The conditions noted are these: Homo sapiens, secondary high-throughput screen, read-out: average effective concentration, MV4-11.
The subject of assay [10] is CHRF288-11. Kind of assay: Secondary dose-response HTS, Cell Titer Glo. It counts as cell-based. To be noted: Homo sapiens, secondary high-throughput screen, read-out: average effective concentration, CHRF288-11.
Assay [11] has as its system M07e. Nature of the assay: Secondary dose-response HTS, Cell Titer Glo. It counts as cell-based. The conditions noted are these: Homo sapiens, M-07e, secondary high-throughput screen, read-out: average effective concentration, M07e.
Assay [12] concerns U937. Kind of assay: Secondary dose-response HTS, Cell Titer Glo. The format is cell-based. To be noted: Homo sapiens, U-937, secondary high-throughput screen, read-out: average effective concentration, U937.
Assay [13] has as its system U937. More on the design: species or system AML cell lines (8); Primary HTS, single concentration about 10 uM, Cell Titer Glo viability; log10 luminescence, per cent inhibition relative to cycloheximide control. The conditions noted are these: 72 h, relative to cycloheximide control, log10 luminescence; inhibitor.
The subject of assay [14] is MV4-11. More on the design: species or system AML cell lines (8); Primary HTS, single concentration about 10 uM, Cell Titer Glo viability; log10 luminescence, per cent inhibition relative to cycloheximide control. To be noted: 72 h, relative to cycloheximide control, log10 luminescence; inhibitor.
Assay [15] deals with CHRF288-11. More on the design: species or system AML cell lines (8); Primary HTS, single concentration about 10 uM, Cell Titer Glo viability; log10 luminescence, per cent inhibition relative to cycloheximide control. The conditions noted are these: 72 h, relative to cycloheximide control, log10 luminescence; inhibitor.
The subject of assay [16] is M07e. Also noted: species or system AML cell lines (8); Primary HTS, single concentration about 10 uM, Cell Titer Glo viability; log10 luminescence, per cent inhibition relative to cycloheximide control. To be noted: 72 h, relative to cycloheximide control, log10 luminescence; inhibitor.
Assay [17] relates to ML-2. More on the design: species or system AML cell lines (8); Primary HTS, single concentration about 10 uM, Cell Titer Glo viability; log10 luminescence, per cent inhibition relative to cycloheximide control. The conditions noted are these: 72 h, relative to cycloheximide control, log10 luminescence; inhibitor.
In assay [18] the test system is MOLM-13. Also noted: species or system AML cell lines (8); Primary HTS, single concentration about 10 uM, Cell Titer Glo viability; log10 luminescence, per cent inhibition relative to cycloheximide control. To be noted: 72 h, relative to cycloheximide control, log10 luminescence; inhibitor.
Assay [19] relates to CMK. Also noted: species or system AML cell lines (8); Primary HTS, single concentration about 10 uM, Cell Titer Glo viability; log10 luminescence, per cent inhibition relative to cycloheximide control. The conditions noted are these: 72 h, relative to cycloheximide control, log10 luminescence; inhibitor.
Assay [20] relates to CMS. Also noted: species or system AML cell lines (8); Primary HTS, single concentration about 10 uM, Cell Titer Glo viability; log10 luminescence, per cent inhibition relative to cycloheximide control. The conditions noted are these: 72 h, relative to cycloheximide control, log10 luminescence; inhibitor.
Assay [21] deals with M07e. Kind of assay: Primary HTS, single concentration, Cell Titer Glo. The format is cell-based, human. The conditions noted are these: approximately 10 µM, 72 h, relative to positive control.
In assay [22] the test system is U937. Kind of assay: Primary HTS, single concentration, Cell Titer Glo. It counts as cell-based, human. To be noted: approximately 10 µM, 72 h, relative to positive control.
Assay [23] concerns MOLM-13. Nature of the assay: Primary HTS, single concentration, Cell Titer Glo. It counts as cell-based, human. To be noted: approximately 10 µM, 72 h, relative to positive control.
Assay [24] has as its system MV4-11. Kind of assay: Primary HTS, single concentration, Cell Titer Glo. The format is cell-based, human. The conditions noted are these: approximately 10 µM, 72 h, relative to positive control.
The test system of assay [25] is CHRF288-11. Nature of the assay: Primary HTS, single concentration, Cell Titer Glo. It counts as cell-based, human. The conditions noted are these: approximately 10 µM, 72 h, relative to positive control.
Assay [26] relates to CMS. Kind of assay: Primary HTS, single concentration, Cell Titer Glo. It counts as cell-based, human. The conditions noted are these: approximately 10 µM, 72 h, relative to positive control.
The subject of assay [27] is ML2. Kind of assay: Secondary dose-response HTS, Cell Titer Glo. It counts as cell-based. The conditions noted are these: Homo sapiens; secondary high-throughput screen; ML-2; read-out: average effective concentration, ML-2.
The subject of assay [28] is ML-2. Nature of the assay: Primary HTS, single concentration, Cell Titer Glo. To be noted: approximately 10 µM, 72 h, relative to positive control. It counts as cell-based, human.
In assay [29] the test system is MLLr primary AML blast samples. Nature of the assay: Ex vivo drug treatment of primary AML blasts on mesenchymal stromal cells. The format is cell-based. To be noted: Homo sapiens; primary blasts on MSC, 96 h, range over patient samples. As to the method:
(§1) IC50 concentrations were calculated, as described above.

Assay [30] deals with AMKL primary AML blast samples. Described as above. The format is cell-based. The conditions noted are these: Homo sapiens; primary blasts on MSC, 96 h. As to the method:
as §1

Assay [31] relates to MOLM-13. Nature of the assay: Secondary dose-response HTS, Cell Titer Glo. The format is cell-based. The conditions noted are these: Homo sapiens, secondary high-throughput screen, read-out: average effective concentration, MOLM-13.
Assay [32] concerns CMK. Kind of assay: Primary HTS, single concentration, Cell Titer Glo. The format is cell-based, human. To be noted: approximately 10 µM, 72 h, relative to positive control.
Setting [33] is: secondary high-throughput screen.

For the compound `CNC(=O)c1ccccc1Sc1ccc2c(/C=C/c3ccccn3)n[nH]c2c1` [AXITINIB], the EC50 in assay [1] worked out at 2100 nM.

`CCS(=O)(=O)N1CC(CC#N)(n2cc(-c3ncnc4[nH]ccc34)cn2)C1` [BARICITINIB]: the EC50 is over 10000 nM in assay [2]; 27 nM in assay [3]; over 10000 nM in assay [4]; 63 nM in assay [1]; over 10000 nM in assay [5]; over 10000 nM in assay [6]. In addition, the EC50 in [7] and in assay [8] was over 10000 nM in each case.

As for `CO[C@@H]1[C@H](N(C)C(=O)c2ccccc2)C[C@H]2O[C@]1(C)n1c3ccccc3c3c4c(c5c6ccccc6n2c5c31)C(=O)NC4` [MIDOSTAURIN], the EC50 in [1] (setting [33]) worked out at 34 nM; in assay [9] it was 55 nM; in assay [10] it was 60 nM; in assay [11] it was 27 nM; in [12], 2400 nM.

`CC(C)OC(=O)C(C)(C)Oc1ccc(C(=O)c2ccc(Cl)cc2)cc1` [SJ000285834-7, FENOFIBRATE]: in [13], the U937 %inh is listed as -2.311%. Also, in [14], the MV4-11 %inh is -2.641%. For the same compound, the CHRF288-11 %inh in assay [15] is -0.7715%. Also, in assay [16], the M07e %inh was -2.895%. The ML-2 %inh in assay [17] is -2.092%. In addition, the MOLM-13 %inh in [18] is -2.915%. The CMK %inh in assay [19] is reported as -2.08%. In [20], the CMS %inh is on record as -2.077%.

Consider `O=C(CCCCCCC(=O)Nc1ccccc1)NO` [Vorinostat], for which, in [21], the M07e %inh was determined as 148%. Moreover, in assay [22], the U937 %inh is given as 116%. Moreover, the EC50 in assay [3] (secondary high-throughput screen, CMS) was 2100 nM; in assay [27], 3100 nM; in assay [1] (setting [33]), 700 nM; in [10] it was 2700 nM; in assay [11] it was 10000 nM; in [12], 1600 nM. Further, the EC50 in assay [31] amounted to 1400 nM. The MOLM-13 %inh in assay [23] worked out at 126%. In addition, in assay [24], the MV4-11 %inh is 115%. Moreover, the CHRF288-11 %inh in [25] amounted to 213%. Moreover, the CMS %inh in assay [26] is given as 118%. In addition, the ML-2 %inh in assay [28] stood at 76%. The IC50 (commonly the concentration needed to halve the response being measured) in [29] is 711 to 1200 nM; in [30] it was 637 nM. The CMK %inh in assay [32] was determined as 120%.
